In the GPR68 mutational scans of Howard et al. (2025):

B1: GPR68, Q15743 (parent)
chain: MGNITADNSSMSCTIDHTIHQTLAPVVYVTVLVVGFPANCLSLYFGYLQIKARNELGVYLCNLTVADLFYICSLPFWLQYVLQHDNWSHGDLSCQVCGILLYENIYISVGFLCCISVDRYLAVAHPFRFHQFRTLKAAVGVSVVIWAKELLTSIYFLMHEEVIEDENQHRVCFEHYPIQAWQRAINYYRFLVGFLFPICLLLASYQGILRAVRRSHGTQKSRKDQIQRLVLSTVVIFLACFLPYHVLLLVRSVWEASCDFAKGVFNAYHFSLLLTSFNCVADPVLYCFVSETTHRDLARLRGACLAFLTCSRTGRAREAYPLGAPEASGKSGAQGEEPELLTKLHPAFQTPNSPGSGGFPTGRLA

Columns and labels:
[1] = variants of: B1; assay: cAMP reporter score (Enrich2 score, wild type = 0); higher = more signal; HEK293T, FACS bins
[2] = variants of: B1; assay: surface expression score (Enrich2 score, wild type = 0); higher = more signal; HEK293T, FACS bins

Variant | cAMP reporter score ([1]; pH 5.5) | cAMP reporter score ([1]; pH 6) | cAMP reporter score ([1]; pH 6, modulator: ogerin) | cAMP reporter score ([1]; pH 6.5, modulator: ogerin) | surface expression score [2]
MGNITADNSSMSCTIDHTIHQTLAPVVYVTVLVVGFPANCLSLYFGYLQIKARNELGVYLCNLTVADLFYICSLPFWLQYVLQYDNWSHGDLSCQVCGILLYENIYISVGFLCCISVDRYLAVAHPFRFHQFRTLKAAVGVSVVIWAKELLTSIYFLMHEEVIEDENQHRVCFEHYPIQAWQRAINYYRFLVGFLFPICLLLASYQGILRAVRRSHGTQKSRKDQIQRLVLSTVVIFLACFLPYHVLLLVRSVWEASCDFAKGVFNAYHFSLLLTSFNCVADPVLYCFVSETTHRDLARLRGACLAFLTCSRTGRAREAYPLGAPEASGKSGAQGEEPELLTKLHPAFQTPNSPGSGGFPTGRLA [H84Y] | 0.284 | -0.702 | 0.15 | -0.858 | -0.575
H84_D85insG | -1.18 | -1.94 | -1.57 | -1.4 | 1.86
H84_D85insGS | -1.91 | -1.44 | -1.44 | -1.36 | -0.962
H84del | -0.112 | -0.6 | -0.974 | -1.05 | 1.51
D85_N86del | -1.13 | -0.345 | -1.45 | -1.17 | -1.52
D85_N86insG | -1.5 | -1.42 | -1.84 | -0.82 | 0.455
D85_N86insGS | -1.82 | -0.725 | -2.13 | -1.78 | -0.484
D85del | -0.746 | -1.01 | -0.638 | -0.943 | -0.256
N86_S88del | -1.88 | -1.12 | -1.56 | -1.07 | -1.49
W87_H89del | -1.75 | -0.61 | -1.04 | -1.3 | -1.39
W87_S88insG | -1.51 | -0.454 | -0.578 | -0.872 | -1.26
W87_S88insGS | -1.59 | -1.36 | -2.06 | -0.493 | -1.29
S88_H89insG | -1.03 | -0.09 | – | -0.768 | -0.128
H89_G90insGS | -1.08 | -0.158 | -0.597 | -0.113 | -1.32
G90_D91insG | -2.35 | – | -0.877 | -0.378 | -1.21
G90_L92del | -2.02 | -1.1 | -0.226 | – | -0.887
MGNITADNSSMSCTIDHTIHQTLAPVVYVTVLVVGFPANCLSLYFGYLQIKARNELGVYLCNLTVADLFYICSLPFWLQYVLQHDNWSHGALSCQVCGILLYENIYISVGFLCCISVDRYLAVAHPFRFHQFRTLKAAVGVSVVIWAKELLTSIYFLMHEEVIEDENQHRVCFEHYPIQAWQRAINYYRFLVGFLFPICLLLASYQGILRAVRRSHGTQKSRKDQIQRLVLSTVVIFLACFLPYHVLLLVRSVWEASCDFAKGVFNAYHFSLLLTSFNCVADPVLYCFVSETTHRDLARLRGACLAFLTCSRTGRAREAYPLGAPEASGKSGAQGEEPELLTKLHPAFQTPNSPGSGGFPTGRLA [D91A] | 0.105 | -0.154 | 0.326 | -0.615 | 0.439
MGNITADNSSMSCTIDHTIHQTLAPVVYVTVLVVGFPANCLSLYFGYLQIKARNELGVYLCNLTVADLFYICSLPFWLQYVLQHDNWSHGCLSCQVCGILLYENIYISVGFLCCISVDRYLAVAHPFRFHQFRTLKAAVGVSVVIWAKELLTSIYFLMHEEVIEDENQHRVCFEHYPIQAWQRAINYYRFLVGFLFPICLLLASYQGILRAVRRSHGTQKSRKDQIQRLVLSTVVIFLACFLPYHVLLLVRSVWEASCDFAKGVFNAYHFSLLLTSFNCVADPVLYCFVSETTHRDLARLRGACLAFLTCSRTGRAREAYPLGAPEASGKSGAQGEEPELLTKLHPAFQTPNSPGSGGFPTGRLA [D91C] | -0.376 | – | -0.862 | 0.27 | -0.189
MGNITADNSSMSCTIDHTIHQTLAPVVYVTVLVVGFPANCLSLYFGYLQIKARNELGVYLCNLTVADLFYICSLPFWLQYVLQHDNWSHGELSCQVCGILLYENIYISVGFLCCISVDRYLAVAHPFRFHQFRTLKAAVGVSVVIWAKELLTSIYFLMHEEVIEDENQHRVCFEHYPIQAWQRAINYYRFLVGFLFPICLLLASYQGILRAVRRSHGTQKSRKDQIQRLVLSTVVIFLACFLPYHVLLLVRSVWEASCDFAKGVFNAYHFSLLLTSFNCVADPVLYCFVSETTHRDLARLRGACLAFLTCSRTGRAREAYPLGAPEASGKSGAQGEEPELLTKLHPAFQTPNSPGSGGFPTGRLA [D91E] | 0.274 | 1.06 | 0.369 | 0.084 | -0.255

Scores whose standard error is large were omitted. Not listed are two conditions whose scores span a narrow range. Names with del lack the residues named; names with ins carry added residues between the positions named. For some of these results: How much ogerin was present is not stated here.
